Measured values as given in PubChem BioAssay AID624417 (National Center for Advancing Translational Sciences (NCATS), 2012).
Several values for one entry are separate records, joined by “and”; a condition that tells them apart may be missing. Equal values may be shown once. Out of some 410,000 compounds screened, about 6,400 (1.6%) were called active. This list was built around the results that the source calls inconclusive (neither active nor inactive); the mix of calls is not that of the screen. Calls come from the whole dose curve; as a rule, active = well fitted inhibition curve with a large enough effect; inconclusive = small, poorly fitted or top-dose-only effect; inactive = no such curve, though single readings can be large or run the other way. Potencies of inconclusive entries are doubtful fits and often do not repeat.

molecular target: Glucagon-like peptide 1 receptor (Homo sapiens) (UniProt P43220); test: qHTS of GLP-1 Receptor Inverse Agonists (Inhibition Mode); conditions: HEK293 GLP-1R CRE-luciferase, luminescence, 24 h, GLP-1R form is constitutively active; series mostly up to 38.3 µM; note: nearly all actives have a fitted effect of over 55% in size
Method in brief: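 qHTS in 1536-well format: reporter HEK293 cells expressing constitutive GLP-1R activity in DMEM + 10% Nu serum, 24 hr with compounds at 37 deg C, luminescence read after 12 min with detection reagent.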
Potency is the fitted concentration of half-maximal effect; tags give direction and shape of the fitted curve.

Chain of UniProt P43220 (P43220 whole entry, looked up): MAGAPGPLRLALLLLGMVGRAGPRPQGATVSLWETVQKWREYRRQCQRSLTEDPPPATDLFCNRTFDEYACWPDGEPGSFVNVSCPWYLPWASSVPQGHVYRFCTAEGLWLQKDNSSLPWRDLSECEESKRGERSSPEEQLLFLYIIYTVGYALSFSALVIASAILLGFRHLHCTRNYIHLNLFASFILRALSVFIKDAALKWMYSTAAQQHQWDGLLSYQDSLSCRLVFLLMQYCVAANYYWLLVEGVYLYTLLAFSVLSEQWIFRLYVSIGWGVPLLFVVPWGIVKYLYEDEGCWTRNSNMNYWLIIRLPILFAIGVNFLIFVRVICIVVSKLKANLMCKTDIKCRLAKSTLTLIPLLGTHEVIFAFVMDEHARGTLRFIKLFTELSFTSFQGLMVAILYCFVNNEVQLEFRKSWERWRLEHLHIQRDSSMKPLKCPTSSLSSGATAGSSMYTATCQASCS

| SMILES | Potency |
| --- | --- |
| C#CCOCCOCCOCCNc1nc(N2CCN(C(=O)CCCCCCCCCCNC(=O)[C@@H](CCSC)n3cc(CCO)nn3)CC2)nc(N2CCN(C(=O)CCCCCCCCCCNC(=O)[C@H]([C@@H](C)CC)n3cc(CCCCCN)nn3)CC2)n1 | inconclusive: 22.4 µM [inhibitor, single point] |
| CC(C)COc1nc2ccccc2nc1N1CCN(C)CC1 | inconclusive: 28.2 µM [inhibitor, single point] |
| Cc1cc(SCC(=O)N2CCCC2=O)nc2c(C)cccc12 | inactive |
| Cc1ccccc1NC(=O)c1sc2nc3c(cc2c1N)CCCC3 | inconclusive: 7.94 µM [inhibitor, partial curve, poor fit] |
| CCc1nc(SCC(=O)Nc2ccc(N(C)C)cc2)c2ccccc2n1 | inconclusive: 11.2 µM [inhibitor, single point] |
| COc1ccc(Cl)cc1NC(=O)CSc1nccn1Cc1ccco1 | inactive |
| O=C(Cn1cnc2scc(-c3ccc(F)cc3)c2c1=O)NCC(c1ccco1)N1CCCC1 (stereo not given) | inconclusive: 28.2 µM [inhibitor, single point] |
| CN(CC(=O)Nc1cccc(C(F)(F)F)c1)S(=O)(=O)c1ccc2[nH]c3c(c2c1)CCCC3 | inconclusive: 11.2 µM [inhibitor, single point] |
| COc1ccc(Cl)cc1NC(=O)C(C)NC(c1ccccc1)c1ccccc1 (stereo not given) | inconclusive: 3.16 µM [inhibitor, full curve, poor fit] |
| COc1cccc(NC(=O)CSc2nc3ccccc3nc2N2CCOCC2)c1 | inconclusive: 28.2 µM [inhibitor, single point] and inconclusive: 10 µM [inhibitor, single point] |
| COc1cccc(/C=N/NC(=O)CSc2ccccc2C)c1O | inconclusive: 2 µM [inhibitor, full curve, poor fit] |
| CSCCC(NC(=O)c1ccco1)C(=O)NCC(C)(C)N1CCOCC1 (stereo not given) | inactive |
| CCc1nnc(NS(=O)(=O)c2ccc(N/C=C\C(=O)c3cccc4ccccc34)cc2)s1 | inconclusive: 3.55 µM [inhibitor, partial curve, poor fit] |
| Cc1ccc(CNC(=O)c2c3c(nc4ccccc24)C(=O)N(C2CCCCC2)C3)cc1 | active: 11.2 µM |
| O=C(CSc1nc2ccccc2c(=O)n1Cc1ccccc1)Nc1ccc(Br)cc1C(=O)O | inconclusive: 7.94 µM [inhibitor, partial curve, poor fit] |
| CCCCn1c2ccc(F)cc2c2nnc(SCCN(CC)CC)nc21 | inactive |
| Cc1ccccc1NC1=NCC(c2ccc([N+](=O)[O-])cc2)S1 (stereo not given) | inactive |
| COc1ccccc1COCC(O)CN(Cc1ccco1)Cc1ccccc1O (stereo not given) | inconclusive: 11.2 µM [inhibitor, partial curve, poor fit] |
| O=C(c1ccc2c(c1)OCO2)N1CCN(S(=O)(=O)c2ccc(Br)cc2Cl)CC1 | inconclusive: 11.2 µM [inhibitor, single point] |
| COc1cc(C2CC(=O)c3c([nH]c(C(=O)OC4CCCCC4)c3C)C2)cc(OC)c1OC (stereo not given) | inconclusive: 3.16 µM [inhibitor, full curve] |

| SMILES | Potency |
| --- | --- |
| COC(=O)C(CCCCN1C(=O)C2C3C=CC(C3)C2C1=O)N1C(=O)C2C3C=CC(C3)C2C1=O (stereo not given) | inconclusive: 20 µM [inhibitor, single point] |
| CCN(CC)c1ccc(N=Cc2c(C)[nH]c3ccccc23)cc1 | inconclusive: 12.6 µM [inhibitor, single point] |
| COCCn1c(SCC(=O)NCCCN2CCCC2=O)nc2sc3c(c2c1=O)CCCC3 | inactive |
| CC(Sc1nc(-c2ccc(F)cc2)cs1)C(=O)N1c2ccccc2CC1C (stereo not given) | inconclusive: 12.6 µM [inhibitor, partial curve, poor fit] |
| FC(F)Oc1ccc(NC(=S)NCc2nc3ccccc3[nH]2)cc1 | inactive |
| Cc1cccc(NC(=S)NC2CC3C=CC2C3)c1 (stereo not given) | inconclusive: 11.2 µM [inhibitor, partial curve, poor fit] |
| CCOC(=O)c1sc(NC(=O)c2sccc2C)cc1C | inconclusive: 28.2 µM [inhibitor, single point] |
| COC(=O)c1sc(NC(=O)c2c(C)noc2C)nc1C | inactive |
| CC(C)N1C(=O)/C(=C\c2nc3ccccc3c(=O)[nH]2)c2ccccc21 | inconclusive: 28.2 µM [inhibitor, single point] |
| COc1cn(-c2ccccc2)nc1C(=O)Nc1ccc(C)cc1 | inconclusive: 31.6 µM [inhibitor, single point] |
| COc1cccc(/C=N/NC(=O)CNC(=O)CCc2ccccc2)c1O | inconclusive: 14.1 µM [inhibitor, single point] |
| O=C1Nc2ccc(Br)cc2C1(O)c1ccc(F)cc1 (stereo not given) | inconclusive: 14.1 µM [inhibitor, single point] |
| Cc1ccc2c(CC(=O)NCc3ccc4c(c3)OCO4)coc2c1 | inconclusive: 10 µM [inhibitor, partial curve, poor fit] |
| CC(=O)OC[C@H]1COc2ccc3ccccc3c2[C@H]1N(C)C(C)=O | inconclusive: 7.08 µM [inhibitor, partial curve, poor fit] |
| C=CCNC(=O)c1sc(-c2ccccc2)nc1C | inactive |
| CCCC#Cc1cnc2c(c1)C(=O)N([C@H](C)CO)C[C@@H](C)[C@H](CN(C)S(=O)(=O)c1cccc(OC)c1)O2 | inconclusive: 28.2 µM [inhibitor, single point] |
| CC1(C)CC(n2c(NCCO)nc3c(c2=O)C2(CCCC2)Cc2ccccc2-3)CCO1 (stereo not given) | inconclusive: 12.6 µM [inhibitor, partial curve, poor fit] |
| Cc1onc(-c2c(F)cccc2Cl)c1C(=O)OCC(=O)Nc1c(C)n(C)n(-c2ccccc2)c1=O | inconclusive: 10 µM [inhibitor, partial curve, poor fit] |
| COc1ccc(-n2nc3ccc(N)cc3n2)cc1Cl | inconclusive: 1.12 µM [inhibitor, full curve, poor fit] |
| O=C(CSc1nc2ccccc2c(=O)n1CCCN1CCOCC1)Nc1ccc(Br)cc1 | inconclusive: 28.2 µM [inhibitor, single point] |
